Reference: the RNAGym collection of RNA variant scans (doi:10.7554/elife.90254)
Read counts are not given, so values of variants with three or more changes are uncertain.

B1: LINE1-full (parent)
chain: UACGUAGGUGGUUUUCCCCUGAUAGUGCUAAGGGGGCCUGGAAGUUUGGACUGGGCAGAGCUCAACACAGCGUGGCAAAGUGGCUGUGGCUAGACUGCCUCUCUGGAUUCCUCGUCACUCAGCAGGGCAUCUCUGAGAGAAAUGCC

Variants of: B1
Assay: self-cleavage, relative activity (ratio to wild type); higher = more cleavage; in vitro, sequencing; the parent is a self-cleaving ribozyme

Variant	self-cleavage
U5C G8A U14C A31U	0.75
U5C A22G A67U A78G A142G	0.62
U5G U45C U108C	0.98
A6C U13A G33A A92G	0.32
A6G U12G A140G	0.95
U5C G75C A77C U96A	0
U5C U14C U47G A65G G75A C99U	0.19
A6G U15G G89U C90A	0
A6G A31G C84A	0.13
U5A A65G A141G	0.16
U5C A77U C133U	0.93
A6G C28U U45A A129U G139U	0.66
U5A U46C C76U U85C	0.58
A6G A65U U102G U119C	1.64
U5C U9C C37G	1.2
U5C A65G U100A A117G U132C	0
U5C A94C A140G A142G	0.16
U5A U45C A92G U100C	0
U5A U85C C118U	0.13
A6G A22G A42C C133U A140G	0.46
U5C U130C A136G	1.62
U5A A57U U62A	0.19
A6G C38G A43G U87G	0.66
U5C A22U U100C	0.55

Variant	self-cleavage
A6G C19U U46C A136G	1.27
A6G A65G A94G	0.26
A6G A64G U130C U134A A140U	0.44
A6G A43G U85C	0
U5A U12G U29C U134C	2.1
U5C U102C G137U	2.17
U5C A30G A50G G55A A79G A136G	0.61
U5A U85C U96C U115C	0
A6G G10A U47A U115C	0.71
A6G U12C U52C G125U	0.63
U5C U112C A121C A142G	0.66
U5A A22G A65G A77U	0.14
U5A U47C U62C U102A	0
U5C U45C A107G U108C	1.15
A6G A22G G44A U96C	0.17
U5A U52A C63U U115A	0.08
A6G C18U G114U A117G	0.97
U5C U14A A79C U104C	0.37
U5C U9C A57G A138G	0.71
A6G G34A A65G	0.08
A6G A78G A92U	0.15
A6C U14A U87C	0.39
U5C U45G A77G U115A U130A	2.18
U5A U45C C51U A59G U130C	0.3

Variant	self-cleavage
A6G U23C A59G A140G	1.02
U5C G72A U87G	0.32
U5C U13C C28G	1.09
A6G A79G U81C G83A A142G	1.59
U5A A124G G125U	1.09
U5C A50U U62C C71G	0.44
U5A A67U A69G G83A G97A U134C A142G	0.02
U5C U73C U134A A138G	1.31
U5A A22G U102C	1.07
U5A U52A U119C	0.75
A6G A42G U87A	0.44
U5G A59G U96A A107U G125U	0.04
A6G A22G A42G	0.15
U5A U23G U39C U47A U108C	1.1
A6C U130C A141G	1.91
A6G G8A U104C	0.92
A6G C38U U47G C131A	0.7
U5C A22C C28U A69U U96A	0.18
U5C U85A A107G	0
U5C G70C A141U	0.3
U5G U9A A42U A65G	0.15
A6G U45C A94U U132C A142G	0.48
A6G U46C U96A C111U A124G	0.2
A6G A31G U45C A57U A140G	0.42

Variant	self-cleavage
U5A A79G A136G	0.71
U5A U20C G80A	1.17
U5C U73C U85C	0.54
A6G U9A A43G U47C	0.48
U5C U112C A121G	1.18
U5C G36A A59U A64G G86U	0.05
U5C U13A A43G U73A A78G	0.29
U5C C71G A138G	0.8
A6G A42G U119C	1.02
A6G U45C G83A A117G	0.75
A6G U12A U109C	1.1
A6G A31U A65G C66A	0.33
U5C A31U U109A G114A U132C G135A	1.11
U5C A43U U87C U115G A124G	0
U5C A57G U143C	1.48
U5C A31C U47C A50U C128U	0.92
U5C A6G U102A	1.87
U5A A77U A107G	0.97
A6G A64G A140G	1.08
U5C A50U U73A	1.21
A6G A43G U115A G126A A138G	0.98
A6G U13A A65G A140G	0
U5C U14C C19U U45G U73A U96A A142G	0
U5C U15A A22G U143C	0.98

Variant	self-cleavage
U5C U87A U115C U130C	0.1
U5C A50U U52C C113U	0.4
U5C G44U A59G G137A	0.15
A6G A94G A107U	1.45
U5C A30G G40A	0.84
A6G U45C U47C A77U U104C	2.04
A6C A24G G36A	0.61
U5G U9C U39G A79G	2.63
U5C U15C G32A U47C	1.17
U5C U23C U45C	0.71
U5A G75A A78U U143C	1.64
A6G U29C U39G A77G U109C	1.84
A6G G7U U14C A67G U109A A142G	0.54
A6G U9A U14C C37G A50G U85A A107G A142C	0
A6G A22G U119G	1.69
U5A U14C A117C	1.48
A6G A78G A94G	0.84
U5C U47C A77U A124G A141G	2.04
U5G C19U U62A A79U	0.27
U5C U14C C61G U100C A141G	0.1
U5C U87A A117G	0.77
U5A A30U A57G	0.55
U5C G33A A142G	1.6
A6G U52C A77G G126A	0.79

Variant	self-cleavage
U5C U9C U14C A77G	0
A6G G55A A92G	0.05
A6G C123A U132A	0.97
A6C U23C U39C U119A	0
U5A U14A A24U	0.68
A6G U12C G70A U85C	0.7
U5A U15G U20A G40A A64G	0.11
A6C A64G A65G A136U A140G	1.23
U5G A6G A77U U132G U143A	0.61
A6G U14C A92G	0.4
A6G U12C A30U U100C A107G U108C	0
U5A U73C U115A	1.72
U5C A30U A136G A141G	1.53
U5C U13C G44A U45A A59G C90U	0.09
U5A C63A U143C	0.11
U5C G7A U47C U112C A138U	1.23
A6G U12G A42G A64G U119A	0
A6G C16U G60A A69G	0.1
U5C U45C A94U A107G	0.92
U5A C37U G122C U134C	1.43
U5C U12A G54A A65G C71U	0.07
U5C U13C A79U U104C	0.96
U5A U14A A107G	1.59
A6G U46A G144U	2.18

Variant	self-cleavage
U5C C19U A31G	0.67
A6G U13C U26C G33A G49A	0.77
U5A U39A U85C	0.07
A6G U14C A124U	0.57
U5C U46C A50U A138U	1.39
U5A A92G A136G	0
U5C U39A G127A	0.95
U5C U14C U46C U119C	0.63
U5C G32A U62C	0.16
A6G U9A U143C	0.81
U5A C51U G75C	0.84
U5G U47C C103U	0.63
A6G A24G U130C U132C	0.27
A6C U14C A107G A121U	1.38
A6G U13A U26A A31G U119C	0.51
U5C G33U A42G A78G U109C	0.47
A6G G60A U87G U104C A117U U119A	0.1
U5G A50G A78U G82A U87A U119C A124G	0
U5A U12C U15C A142G	0.97
U5C U26C G33A U112G C123U	1.51
U5C U52A A79G	1.21
A6G U23C U45C U87A	0.48
U5C A43G C95A U115C	0.14
